In article PMC5655436:
These are yes or no findings as the source states them, for the method shown. In cells and extracts the contact can be indirect. Some results given as binding are weak or reduced against the parent protein; the word gives no strength.

Protein sequences, listed by entry. Tags and fused reporters are not part of them. Lines headed by an entry give the natural chain unless they say otherwise; changes in a name come on top. Chains listed by the source or under a name are the forms on record and can include a tag or linker.
UniProt O60678: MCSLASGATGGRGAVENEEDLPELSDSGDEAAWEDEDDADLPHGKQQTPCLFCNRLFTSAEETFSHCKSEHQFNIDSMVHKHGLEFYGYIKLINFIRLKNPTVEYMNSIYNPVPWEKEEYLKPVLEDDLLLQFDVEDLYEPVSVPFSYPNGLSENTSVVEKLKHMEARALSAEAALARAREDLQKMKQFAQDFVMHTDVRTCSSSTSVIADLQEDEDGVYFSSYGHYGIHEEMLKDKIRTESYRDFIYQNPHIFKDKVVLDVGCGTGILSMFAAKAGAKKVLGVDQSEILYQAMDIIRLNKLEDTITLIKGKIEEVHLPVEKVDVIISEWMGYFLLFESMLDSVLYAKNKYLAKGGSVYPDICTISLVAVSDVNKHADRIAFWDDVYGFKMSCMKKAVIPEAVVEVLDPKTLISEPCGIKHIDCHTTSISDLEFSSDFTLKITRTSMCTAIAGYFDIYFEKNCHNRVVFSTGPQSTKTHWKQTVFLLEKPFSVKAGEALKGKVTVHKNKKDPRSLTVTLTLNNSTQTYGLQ
UniProt Q99873: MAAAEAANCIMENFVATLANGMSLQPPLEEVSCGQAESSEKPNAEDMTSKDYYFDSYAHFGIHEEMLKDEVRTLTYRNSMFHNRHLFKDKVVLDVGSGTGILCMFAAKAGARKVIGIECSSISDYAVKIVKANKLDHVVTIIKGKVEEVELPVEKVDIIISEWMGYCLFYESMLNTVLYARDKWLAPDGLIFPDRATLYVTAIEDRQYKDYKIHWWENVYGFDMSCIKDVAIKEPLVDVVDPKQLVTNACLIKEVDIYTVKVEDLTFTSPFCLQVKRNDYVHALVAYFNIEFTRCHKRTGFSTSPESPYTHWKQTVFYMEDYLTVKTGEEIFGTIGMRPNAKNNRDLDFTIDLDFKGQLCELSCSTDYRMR
UniProt Q9BQA1: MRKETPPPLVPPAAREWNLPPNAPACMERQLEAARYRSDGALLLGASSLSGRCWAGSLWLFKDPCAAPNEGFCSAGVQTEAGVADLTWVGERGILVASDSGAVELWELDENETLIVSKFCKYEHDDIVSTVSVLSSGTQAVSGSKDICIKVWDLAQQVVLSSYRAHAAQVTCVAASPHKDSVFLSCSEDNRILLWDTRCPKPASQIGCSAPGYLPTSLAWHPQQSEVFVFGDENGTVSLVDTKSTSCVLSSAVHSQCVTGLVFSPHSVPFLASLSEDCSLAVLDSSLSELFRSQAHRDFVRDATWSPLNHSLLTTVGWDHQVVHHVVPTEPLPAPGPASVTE
UniProt P03148: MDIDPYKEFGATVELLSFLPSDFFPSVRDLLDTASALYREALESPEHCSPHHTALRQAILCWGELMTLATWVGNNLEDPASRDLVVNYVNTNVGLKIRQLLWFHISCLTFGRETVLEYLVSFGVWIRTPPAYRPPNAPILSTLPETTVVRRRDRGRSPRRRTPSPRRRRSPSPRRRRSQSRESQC
UniProt O14744: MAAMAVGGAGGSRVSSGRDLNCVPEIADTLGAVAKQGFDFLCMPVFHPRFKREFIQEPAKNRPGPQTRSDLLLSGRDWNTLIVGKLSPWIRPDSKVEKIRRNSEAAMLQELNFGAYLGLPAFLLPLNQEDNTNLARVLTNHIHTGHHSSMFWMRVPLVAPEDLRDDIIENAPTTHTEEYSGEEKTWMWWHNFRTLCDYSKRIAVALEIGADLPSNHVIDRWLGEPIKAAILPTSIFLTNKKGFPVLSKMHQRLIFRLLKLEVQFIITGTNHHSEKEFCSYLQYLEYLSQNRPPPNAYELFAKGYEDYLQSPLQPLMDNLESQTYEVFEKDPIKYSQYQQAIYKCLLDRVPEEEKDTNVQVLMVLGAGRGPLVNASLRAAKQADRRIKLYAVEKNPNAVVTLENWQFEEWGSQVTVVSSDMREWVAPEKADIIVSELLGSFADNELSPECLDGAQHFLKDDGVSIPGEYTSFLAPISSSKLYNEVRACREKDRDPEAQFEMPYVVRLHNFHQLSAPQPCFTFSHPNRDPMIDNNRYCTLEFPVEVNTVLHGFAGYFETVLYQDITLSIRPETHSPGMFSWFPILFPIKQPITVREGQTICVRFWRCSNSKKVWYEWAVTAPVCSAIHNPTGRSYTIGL
PRMT5v2 (PRMT5 splice variant 2, isoform b), Flag-tagged, expressed in HEK293T cells (O14744-2, form named): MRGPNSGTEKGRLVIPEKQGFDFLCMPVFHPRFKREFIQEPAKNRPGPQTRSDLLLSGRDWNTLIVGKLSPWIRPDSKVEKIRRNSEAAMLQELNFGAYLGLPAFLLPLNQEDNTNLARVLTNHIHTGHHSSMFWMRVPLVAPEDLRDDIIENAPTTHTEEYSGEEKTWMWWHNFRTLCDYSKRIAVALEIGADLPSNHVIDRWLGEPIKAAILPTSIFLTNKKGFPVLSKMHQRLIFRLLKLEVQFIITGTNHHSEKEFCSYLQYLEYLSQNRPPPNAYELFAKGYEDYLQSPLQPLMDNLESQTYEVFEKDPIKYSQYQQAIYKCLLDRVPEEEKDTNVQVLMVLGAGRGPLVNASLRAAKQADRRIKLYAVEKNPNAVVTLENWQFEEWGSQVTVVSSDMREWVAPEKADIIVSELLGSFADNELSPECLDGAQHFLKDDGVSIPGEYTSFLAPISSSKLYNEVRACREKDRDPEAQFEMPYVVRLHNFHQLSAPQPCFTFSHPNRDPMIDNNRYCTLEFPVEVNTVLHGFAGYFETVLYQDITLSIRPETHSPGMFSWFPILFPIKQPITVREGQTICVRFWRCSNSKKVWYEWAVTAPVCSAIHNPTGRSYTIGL

Legend:
[1] = target: PRMT3, Flag-tagged, expressed in HEK293T cells (human) (UniProt O60678); experiment: co-IP; HEK293T cells co-transfected with Flag-tagged PRMTs or MEP50 and HBc-V5/AP; lysates (400 μg) in 20 mM HEPES pH 7.9, 50 mM NaCl, 5 mM EDTA, 1% Igepal CA-630, 10% glycerol; IP with anti-Flag magnetic beads at 4°C overnight; HBc detected with NeutrAvidin-HRP
[2] = target: PRMT1, Flag-tagged, expressed in HEK293T cells (human) (UniProt Q99873); experiment: as above
[3] = target: MEP50/WDR77 (methylosome protein 50), Flag-tagged, expressed in HEK293T cells (human) (UniProt Q9BQA1); experiment: as above
[4] = target: GST-HBc (full-length HBV core protein, aa 1-185, genotype A, subtype adw2, fused to GST) (Hepatitis B virus, genotype A, subtype adw2) (UniProt P03148); experiment: pull-down; lysates of HEK293T cells transfected with Flag-tagged PRMTs or MEP50 incubated with GST-HBc, GST-HBc-ΔC or GST alone on glutathione-Sepharose beads; Western blot with anti-Flag; only the target purified
[5] = target: GST-HBc (full-length HBV core protein, aa 1-185, genotype A, subtype adw2, fused to GST) (Hepatitis B virus, genotype A, subtype adw2) (UniProt P03148); experiment: pull-down; GST-HBc or GST alone (0.5 μg) on glutathione-Sepharose beads incubated with 3 to 10 μl of in vitro translated Flag-tagged proteins in binding buffer (10 mM Tris pH 7.6, 100 mM NaCl, 0.1 mM EDTA, 1 mM DTT, 5 mM MgCl2, 0.5% Igepal CA-630, 8% glycerol), 4°C, 3 h; Western blot with anti-Flag; only the target purified

Substance | binding [4] | binding [5] | other results
HBc-V5/AP (full-length HBc, aa 1-185, genotype A, subtype adw2, with V5 tag and AP tag) (from UniProt P03148 1-185) | – | – | binding [1]: binds weakly; binding [2]: no binding; binding [3]: binds
MEP50/WDR77 (methylosome protein 50), Flag-tagged, expressed in HEK293T cells (from UniProt Q9BQA1 1-342) | binds | – | –
MEP50/WDR77 (methylosome protein 50), Flag-tagged, in vitro translated (from UniProt Q9BQA1 1-342) | – | binds | –
PRMT1, Flag-tagged, in vitro translated (from UniProt Q99873 1-371) (enzyme) | – | no binding | –
PRMT5v1 (PRMT5 splice variant 1, isoform a), Flag-tagged, expressed in HEK293T cells (from UniProt O14744 1-637) (enzyme) | binds | – | –
PRMT5v1 (PRMT5 splice variant 1, isoform a), Flag-tagged, in vitro translated (from UniProt O14744 1-637) (enzyme) | – | binds | –
PRMT5v2 (PRMT5 splice variant 2, isoform b), Flag-tagged, expressed in HEK293T cells (from UniProt O14744-2 1-620) (enzyme) | binds | – | –
